Publication PMC6631257, “A Single Site Population Study to Investigate CYP2D6 Phenotype of Patients with Persistent Non-Malignant Pain” (Medicina, 2019)

Legend:
[1] = tested on: patients with persistent non-malignant pain; assay: Analgesic response to a short course of codeine 30 mg QDS (BPI-sf scores, responder analysis); assay type: in vivo, human; conditions: for % non-response within phenotype: non-response = <30% reduction in pain 'on the average'; for BPI-sf Pain 'on the average', mean ± SD / BPI-sf Pain interference (composite), mean ± SD / BPI-sf Pain severity (composite), mean ± SD: ITT n = 125, codeine 30 mg QDS
[2] = tested on: patients with persistent non-malignant pain; assay: Patient Global Impression of Change to Health after codeine; assay type: in vivo, human
[3] = Mean Day 0–4, p < 0.05 vs pre-codeine

## COc1ccc2c3c1O[C@H]1[C@@H](O)C=C[C@H]4[C@@H](C2)N(C)CC[C@@]341 [codeine]
[1]; IM (AS 0.5), of 6
  Codeine Responders (number of participants): 0
  Codeine non-responders (number of participants): 6
[1]; IM (AS 0.5)
  % non-response within phenotype: 6 (100%)
[1]; End of Day 1
  BPI-sf Pain 'on the average', mean ± SD: 5.68 ± 2.28
  BPI-sf Pain interference (composite), mean ± SD: 5.09 ± 2.58
  BPI-sf Pain severity (composite), mean ± SD: 5.67 ± 2.27
[1]; End of Day 2
  BPI-sf Pain 'on the average', mean ± SD: 5.55 ± 2.24
  BPI-sf Pain interference (composite), mean ± SD: 4.90 ± 2.59
  BPI-sf Pain severity (composite), mean ± SD: 5.54 ± 2.28
[1]; End of Day 3
  BPI-sf Pain 'on the average', mean ± SD: 5.51 ± 2.37
  BPI-sf Pain interference (composite), mean ± SD: 4.91 ± 2.66
  BPI-sf Pain severity (composite), mean ± SD: 5.57 ± 2.40
[1]; End of Day 4
  BPI-sf Pain 'on the average', mean ± SD: 5.57 ± 2.35
  BPI-sf Pain interference (composite), mean ± SD: 4.91 ± 2.73
  BPI-sf Pain severity (composite), mean ± SD: 5.62 ± 2.45
[1]; End of Dosing Day (Day 0)
  BPI-sf Pain 'on the average', mean ± SD: 6.00 ± 1.94
  BPI-sf Pain interference (composite), mean ± SD: 5.31 ± 2.40
  BPI-sf Pain severity (composite), mean ± SD: 5.93 ± 1.99
[1]; [3]
  BPI-sf Pain 'on the average', mean ± SD: 5.66 ± 2.11
  BPI-sf Pain interference (composite), mean ± SD: 5.02 ± 2.51
  BPI-sf Pain severity (composite), mean ± SD: 5.67±2.17
[1]; NM (AS 1.0), of 32
  Codeine Responders (number of participants): 5
  Codeine non-responders (number of participants): 27
[1]; NM (AS 1.0–2.0)
  Codeine Responders (number of participants): 26
  Codeine non-responders (number of participants): 80
[1]; NM (AS 1.5), of 18
  Codeine Responders (number of participants): 4
  Codeine non-responders (number of participants): 14
[1]; NM (AS 2.0), of 56
  Codeine Responders (number of participants): 17
  Codeine non-responders (number of participants): 39
[1]; NM, activity scores 1.0–2.0
  normal metabolisers who responded to codeine: 24.5%
[1]; PM (AS 0.0), of 11
  Codeine Responders (number of participants): 0
  Codeine non-responders (number of participants): 11
[1]; PM (AS 0.0)
  % non-response within phenotype: 11 (100%)
[1]; UM (>2.0), of 2
  Codeine Responders (number of participants): 0
  Codeine non-responders (number of participants): 2
[1]; UM (>2.0)
  % non-response within phenotype: 2 (100%)
[1]; all ITT participants, 99/125, codeine 30 mg QDS
  codeine non-responders (did not achieve reduction of pain of ≥30% from baseline): 79%
[1]; females, 58/74
  codeine non-responders: 78%
[1]; males, 41/51
  codeine non-responders: 80%
[1]; re-categorised IM, AS 0.5–1.0 instead of 0.5
  codeine response if IM categorised using activity score 0.5–1.0: 13%
[1]; re-categorised NM, AS 1.5–2.0
  codeine response if NM categorised using activity score 1.5–2.0: 28%
[2]; IMs, 2/6
  participants reporting improvement on Patient Global Impression of Change: 33%
[2]; NMs who did not obtain an analgesic response, 58/80
  participants reporting improvement on Patient Global Impression of Change: 73%
[2]; PMs, 9/11
  participants reporting improvement on Patient Global Impression of Change: 82%
[2]; UMs, 1/2
  participants reporting improvement on Patient Global Impression of Change: 50%
[2]; participants who did not obtain an analgesic response to codeine, 70/99
  participants reporting improvement on Patient Global Impression of Change: 71%
[2]; participants who obtained an analgesic response to codeine, 20/26
  participants reporting improvement on Patient Global Impression of Change: 77%
